Results taken from patent US20160272622A1, “TETRAZOLINONE COMPOUND AND USE THEREOF” (SUMITOMO CHEMICAL COMPANY, LIMITED, priority 2013, published 2016).

System: diamondback moth (Plutella xylostella)
Assay: whole plant or invertebrate
Settings: in Brassica oleracea, 120 h

Q: `COc1ccccc1-n1ccc(OCc2c(-n3nnn(C)c3=O)cnn2C(C)(C)C)n1` [present compound 12, 1-(1-tert-butyl-5-{[1-(2-methoxyphenyl)-1H-pyrazol-3-yl]oxymethyl}-1H-pyrazol-4-yl)-4-methyl-1,4-dihydrotetrazol-5-one] was tested. Which mortality at 500 ppm did it give?
A: The mortality at 500 ppm was at least 80%.

Q: For `Cc1cc(-c2nn(C)c(Cl)c2C)ccc1OCc1c(-n2nnn(C)c2=O)cnn1C(C)(C)C` [present compound 14, 1-(1-tert-butyl-5-[2-methyl-4-(5-chloro-1,4-dimethyl-1H-pyrazol-3-yl)-phenoxymethyl]-1H-pyrazol-4-yl)-4-methyl-1,4-dihydrotetrazol-5-one], which mortality at 500 ppm is on record?
A: Its mortality at 500 ppm is at least 80%.
